Reference: the supplement of paper PMC7826260
The other results are listed elsewhere or left out. Cleavage of a single-stranded DNA pool by Rep nickase domains was read by sequencing for 1 h at 37 °C with 3 µM enzyme; only the middle of the 90-letter strands is printed. Numbers give uncut DNA relative to the enzyme-free pool, as log2; more negative means more cut, near 0 not cut, and no call is made. The scaling is to total reads; values above 0 arise when much of the pool is cut.

tested on: T1, Rep nickase domain of tomato golden mosaic virus; experiment: uncleaved DNA left, log2 of reads against the no-enzyme library (log2 ratio); higher = less cleavage (more negative = more Rep cleavage of the k-mer); sequences stand for … in CTCGTCCG…ACCGGAGA
T1 sequence (residues 1-124 of Rep, tag left off): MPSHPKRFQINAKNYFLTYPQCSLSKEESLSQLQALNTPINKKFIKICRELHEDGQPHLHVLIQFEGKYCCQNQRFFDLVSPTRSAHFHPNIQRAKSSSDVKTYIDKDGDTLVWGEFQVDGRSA
Description: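 A pool of 90-nt single-stranded DNAs with seven random bases just before the constant AC of the nick site (name = the seven bases) was cut by 3 µM recombinant His6-SUMO-tagged Rep nickase domain (300 nM DNA, 50 mM HEPES pH 8.0, 50 mM NaCl, 1 mM MnCl2, 1 h, 37 °C, three replicates). Uncut DNA was amplified and sequenced.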

Row | Sequence | uncleaved DNA left (log2)
1 | TGCAGCG | -0.124
2 | GGTCGGC | -0.0829
3 | TCTAGCA | 0.0641
4 | CACGCCC | -0.0964
5 | CCTATCA | -0.169
6 | ATCTACC | -0.0456
7 | CATCCCG | -0.103
8 | AATATAG | 0.027
9 | CCCGGCG | -0.0564
10 | AGTGGCT | 0.277
11 | ATTGCCA | -0.0275
12 | ACGCGGA | -0.0976
13 | CCAATGT | 0.0407
14 | GTGTAAA | 0.15
15 | CTACATC | 0.171
16 | ACCGTAA | 0.0239
17 | TATGAAC | 0.0375
18 | AATTGTC | -0.0986
19 | TCCCATA | -0.0484
20 | CTGGGTC | -0.0868

Row | Sequence | uncleaved DNA left (log2)
21 | TATTAGC | 0.0635
22 | GGCGGCG | 0.16
23 | GAGTTAT | 0.126
24 | GACATAT | -0.122
25 | TGAACAT | -0.0291
26 | GAGCAGG | 0.193
27 | GCAGTCC | -0.0797
28 | CCCAATT | -0.00737
29 | TTCTTTG | -0.255
30 | GGCGGAG | 0.146
31 | TTATAGA | 0.0275
32 | GCGTTAC | 0.0741
33 | AAGAGGA | 0.145
34 | AACGTAT | -0.0384
35 | TTACAGG | 0.0394
36 | AAGATAC | -0.00516
37 | TTCTTGT | -0.322
38 | CGATCCG | -0.115
39 | CTCGTAT | 0.115
40 | GAAATAA | 0.123
